Source: ChEMBL document CHEMBL4888484, “Replenishing the malaria drug discovery pipeline: Screening and hit evaluation of the MMV Hit Generation Library 1 (HGL1) against asexual blood stage Plasmodium falciparum ,using a nano luciferase reporter read-out” (2022)
In all, about 150,000 compounds went through this assay and about 540 (0.36%) showed an effect of 50% or more. The list shows a part of the results.

Each molecule was assayed on Plasmodium falciparum (assay: Primary screen in NF54 nanoGlo assay, in single point, at 2uM, 72h; a lower Z score goes with more inhibition). Settings: timepoint 72 hour.
Assay type: functional, Erythrocyte

**Q.** For `CN1CCCN(C(=O)NC[C@H]2CCCN2Cc2ccccc2)CC1=O`, which “% Inhibition” value is on record?
**A.** The value was -6%.

**Q.** What about the Z score of the same molecule?
**A.** Its Z score is 0.7.

**Q.** `Cc1ccoc1CN[C@H](c1nc(C2CC2)no1)C(C)C` was tested. Which “% Inhibition” value did it give?
**A.** The value was -1%.

**Q.** What about the Z score of the same molecule?
**A.** The Z score was 0.14.

**Q.** For `CN1CCC(n2nc(C3CCCC3)nc2-c2c[nH]nc2-n2cnnn2)CC1`, which “% Inhibition” value is on record?
**A.** The value was -8%.

**Q.** And the Z score?
**A.** Its Z score is 1.06.

**Q.** How did the “% Inhibition” value turn out when `O=C(Nc1nc(C2CC2)cs1)[C@H]1CCOC1` was run?
**A.** Its value is 10%.

**Q.** What about the Z score of the same molecule?
**A.** Its Z score is -1.28.

**Q.** With `CCCn1cnnc1[C@H](C)NC(=O)c1cncc(F)c1` as the molecule, how does the “% Inhibition” value read?
**A.** Its value is -8%.

**Q.** What about the Z score of the same molecule?
**A.** The Z score was 0.78.

**Q.** What does the source list for `CN1CCN2CCN(C(=O)c3ccc(F)c(O)c3)C[C@@H]2C1`?
**A.** % Inhibition: -7%; Z score: 1.23

**Q.** What does the source list for `O=C(c1ccc(Oc2ccccc2)o1)N1C[C@@H](CN2CCOCC2)[C@@H](CO)C1`?
**A.** % Inhibition: -13%; Z score: 1.25

**Q.** For `N#Cc1cc(N2CCC3(CCN(Cc4ccccc4)CC3)CC2)ncn1`, which “% Inhibition” value is on record?
**A.** The value was 9%.

**Q.** What about the Z score of the same molecule?
**A.** The Z score was -1.05.

**Q.** How did the “% Inhibition” value turn out when `Cc1c(C(=O)N(C)CC2(O)CCCC2)nnn1-c1cccc2ncccc12` was run?
**A.** The value was -19%.

**Q.** And the Z score?
**A.** The Z score was 2.36.

**Q.** How did the “% Inhibition” value turn out when `O=C(CCc1nc2ncccc2[nH]1)NCCCN1CCOCC1` was run?
**A.** Its value is -9%.

**Q.** And the Z score?
**A.** Its Z score is 0.96.

**Q.** What does the source list for `O=C(c1ccc(-n2cccn2)nn1)N1CCc2ccccc21`?
**A.** % Inhibition: -8%; Z score: 1.43

**Q.** With `O=C(NCc1cncc(C2CC2)c1)c1ccc2c(c1)OCO2` as the molecule, how does the “% Inhibition” value read?
**A.** Its value is -7%.

**Q.** And the Z score?
**A.** The Z score was 1.2.

**Q.** How did the “% Inhibition” value turn out when `CC1CCC2(CCN(S(=O)(=O)CCC(F)(F)F)C2)C1` (configuration not stated) was run?
**A.** The value was 1%.

**Q.** What about the Z score of the same molecule?
**A.** The Z score was -0.11.

**Q.** Which results are given for `COC(=O)[C@@H](NC(=O)c1ccccc1F)C(C)C`?
**A.** % Inhibition: -10%; Z score: 1.32

**Q.** Which results are given for `CCC(C)N(C(=O)c1cc(OC)c(OC)c(OC)c1)C(C)CC` (configuration not stated)?
**A.** % Inhibition: 0%; Z score: 0.04

**Q.** `O=C(CS(=O)(=O)[C@H]1CCOC1)N1CCCc2ccccc21` was tested. Which “% Inhibition” value did it give?
**A.** The value was 19%.

**Q.** What about the Z score of the same molecule?
**A.** The Z score was -2.42.

**Q.** What does the source list for `O=C(N[C@@H](CCO)C1CCCC1)c1cc2n(n1)CCCC2=O`?
**A.** % Inhibition: -11%; Z score: 2.06

**Q.** What does the source list for `Cc1nc(C)c(C(=O)N2CC(n3ccnc3)C2)s1`?
**A.** % Inhibition: -13%; Z score: 1.66

**Q.** With `COC(=O)C1(CNC(=O)c2cc(Cl)c[nH]2)CCCCC1` as the molecule, how does the “% Inhibition” value read?
**A.** Its value is -1%.

**Q.** And the Z score?
**A.** Its Z score is 0.13.

**Q.** What does the source list for `N[C@@H]1C[C@@H]2CC(C(=O)Nc3cnc4c(F)c(F)ccc4c3)C[C@@H]21` (some centres not stated)?
**A.** % Inhibition: -5%; Z score: 0.97

**Q.** With `Cc1ccc(NC(=O)c2ccc3c(c2)nnn3C2CCCC2)cc1` as the molecule, how does the “% Inhibition” value read?
**A.** The value was -6%.

**Q.** And the Z score?
**A.** Its Z score is 0.75.

**Q.** For `O=C(Cc1cccc(O)c1)N1CCO[C@H](c2ccsc2)C1`, which “% Inhibition” value is on record?
**A.** Its value is -13%.

**Q.** What about the Z score of the same molecule?
**A.** Its Z score is 1.57.

**Q.** Which “% Inhibition” value does the source give for `CC[C@H]1CC[C@H](C(=O)N2CCC(C)C(O)C2)CC1` (some centres not stated) here?
**A.** Its value is -6%.

**Q.** What about the Z score of the same molecule?
**A.** The Z score was 0.88.

**Q.** `CCCNC(=O)c1nc(CCS(=O)(=O)c2ccc(C)cc2)no1` was tested. Which “% Inhibition” value did it give?
**A.** The value was -5%.

**Q.** What about the Z score of the same molecule?
**A.** Its Z score is 0.79.

**Q.** What does the source list for `COc1ccccc1N1C(=O)C2C(C)NC3(C(=O)N(Cc4ccc(F)cc4)c4ccccc43)C2C1=O` (configuration not stated)?
**A.** % Inhibition: 40%; Z score: -4.52

**Q.** Which “% Inhibition” value does the source give for `Cc1ccc(C(=O)N2CC(C)CC(C)C2)cc1NCc1cc[nH]n1` (configuration not stated) here?
**A.** Its value is 0%.

**Q.** What about the Z score of the same molecule?
**A.** Its Z score is 0.04.

**Q.** `CC1(C)CC(NC(=O)C2CCCO2)CC(C)(CNC(=O)C2CCCO2)C1` (configuration not stated) was tested. Which “% Inhibition” value did it give?
**A.** The value was -14%.

**Q.** What about the Z score of the same molecule?
**A.** Its Z score is 1.83.

**Q.** What does the source list for `CO[C@H]1[C@H](NC(=O)c2cccs2)c2ccccc2C12CCN(Cc1c(F)cccc1F)CC2`?
**A.** % Inhibition: -20%; Z score: 2.49

**Q.** With `CC(C)[C@H](Nc1nccs1)C(=O)NC1CCCCC1` as the molecule, how does the “% Inhibition” value read?
**A.** Its value is -9%.

**Q.** What about the Z score of the same molecule?
**A.** The Z score was 1.36.

**Q.** What does the source list for `Cc1nnc(N2CCC[C@H](c3nc4c(s3)CCC4)C2)nc1C`?
**A.** % Inhibition: -8%; Z score: 1.5

**Q.** What does the source list for `CC(C)(C)c1nnnn1CCn1cccn1`?
**A.** % Inhibition: -3%; Z score: 0.28

**Q.** Which results are given for `O=C1CCN(C(=O)C2CCN(S(=O)(=O)c3ccc4c(c3)CCC4)CC2)CCCCCCN1`?
**A.** % Inhibition: -15%; Z score: 1.82

**Q.** What does the source list for `CC1(C)Cc2nc(C(C)(C)C)ncc2[C@@H](NCc2cc(C#CCO)cs2)C1`?
**A.** % Inhibition: -6%; Z score: 1.15

**Q.** With `Fc1ccc(-c2nc(-c3ccc(N4CCCCC4)nc3)no2)cc1F` as the molecule, how does the “% Inhibition” value read?
**A.** The value was 2%.

**Q.** What about the Z score of the same molecule?
**A.** Its Z score is -0.24.

**Q.** Which results are given for `COc1ccc(Cl)cc1NC(=O)Cn1nc(Nc2cccc(F)c2)c(S(=O)(=O)c2ccc(C)cc2)c1N`?
**A.** % Inhibition: -3%; Z score: 0.34

**Q.** Which “% Inhibition” value does the source give for `Cc1cc(C)cc([C@H]2CCN(C(=O)c3cc(N4CCCC4=O)ccc3F)C2)c1` here?
**A.** The value was -16%.

**Q.** And the Z score?
**A.** Its Z score is 2.31.

**Q.** Which “% Inhibition” value does the source give for `NC(=NOCC(=O)NCCC1=CCCCC1)C1CCCC1` here?
**A.** The value was -5%.

**Q.** And the Z score?
**A.** The Z score was 0.99.

**Q.** For `CC1(C)C[C@@H](NC(=O)c2cnn(-c3ccncc3)c2)CCO1`, which “% Inhibition” value is on record?
**A.** Its value is -9%.

**Q.** And the Z score?
**A.** Its Z score is 1.66.

**Q.** What does the source list for `CC(C)S(=O)(=O)N1CCC(N2C[C@H](OCC3CC3)C23CCCCC3)CC1`?
**A.** % Inhibition: 7%; Z score: -1.15

**Q.** For `Cc1ccn(Cc2nc(CC(C)C)no2)n1`, which “% Inhibition” value is on record?
**A.** Its value is -7%.

**Q.** And the Z score?
**A.** The Z score was 0.89.

**Q.** Which “% Inhibition” value does the source give for `O=C(c1cccc(C(F)(F)F)c1)N1CCOc2ccc(CN3CCCC3)cc2C1` here?
**A.** Its value is -4%.

**Q.** What about the Z score of the same molecule?
**A.** The Z score was 0.77.
